Results as given in the supplement of paper PMC3334620.
The full ranking holds about 33,000 sequences; the median of “E-score (-0.5 to 0.5)” is about -0.043, and the highest 2% start at about 0.37. The list shows a part of the results.

These sequences were tested against T1, Upc2 (UniProt Q12151) (assay: PBM E-score (8-mer binding enrichment) (E-score (-0.5 to 0.5)); higher = stronger / more preferred TF binding; most listed sequences are background and not binding sites). Settings: protein concentration: 200 nM; construct: GST-full length.
T1 sequence: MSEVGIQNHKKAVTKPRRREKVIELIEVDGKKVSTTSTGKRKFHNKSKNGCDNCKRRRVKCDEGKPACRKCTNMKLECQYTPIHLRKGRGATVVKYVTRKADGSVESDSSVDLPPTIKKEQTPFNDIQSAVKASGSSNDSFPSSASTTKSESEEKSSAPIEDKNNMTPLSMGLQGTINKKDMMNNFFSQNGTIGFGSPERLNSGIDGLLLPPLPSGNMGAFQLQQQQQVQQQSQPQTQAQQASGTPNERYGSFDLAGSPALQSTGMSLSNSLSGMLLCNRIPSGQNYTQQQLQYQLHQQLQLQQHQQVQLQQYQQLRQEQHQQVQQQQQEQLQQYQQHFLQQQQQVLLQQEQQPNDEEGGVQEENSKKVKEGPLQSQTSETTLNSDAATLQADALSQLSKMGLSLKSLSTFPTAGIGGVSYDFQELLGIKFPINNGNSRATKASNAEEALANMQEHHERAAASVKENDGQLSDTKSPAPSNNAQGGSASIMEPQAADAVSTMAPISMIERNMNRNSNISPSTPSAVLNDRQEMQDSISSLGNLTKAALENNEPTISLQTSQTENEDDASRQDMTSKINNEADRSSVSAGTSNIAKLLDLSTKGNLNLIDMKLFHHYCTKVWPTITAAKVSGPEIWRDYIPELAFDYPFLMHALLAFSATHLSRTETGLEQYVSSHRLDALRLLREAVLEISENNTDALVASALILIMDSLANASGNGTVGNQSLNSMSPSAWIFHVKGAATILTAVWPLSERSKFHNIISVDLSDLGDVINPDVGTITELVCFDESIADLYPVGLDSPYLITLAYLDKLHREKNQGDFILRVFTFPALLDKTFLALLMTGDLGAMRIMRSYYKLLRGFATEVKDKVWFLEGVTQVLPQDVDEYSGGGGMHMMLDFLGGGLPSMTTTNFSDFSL
Outline: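 PURExpress in vitro transcription/translation supplied GST-tagged yeast transcription factors, either full-length or DNA-binding domain. Applied at about 100-200 nM to universal all-10-mer Agilent arrays double-stranded by primer extension, the bound protein was detected with fluorescent anti-GST. E-scores, modified Wilcoxon-Mann-Whitney statistics, were given by the Universal PBM Analysis Suite to ungapped eight-base words pooled with their reverse complements after masliner normalisation.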

| Sequence | PBM E-score |
| --- | --- |
| CTGGTTAC | -0.118 |
| CAAGCGAA | 0.269 |
| TCGGCCCA | -0.13 |
| ATTTGGGG | -0.0428 |
| GGCTCGGA | 0.0556 |
| GAGGCGAC | -0.104 |
| AGCAACTA | -0.0306 |
| CCTTAGTC | -0.0974 |
| AATCCATC | -0.0888 |
| CTGTAGCA | -0.108 |
| GCTTAGAA | 0.0693 |
| ATTTCCCC | -0.221 |
| GATGCACA | 0.127 |
| GTTGTCGA | -0.0686 |
| ATGATGTA | 0.00759 |
| AGCACATA | -0.0959 |
| ACTCGGGC | -0.171 |
| AGGTGGTG | -0.0977 |
| CTATAGAA | -0.16 |
| GATGATCC | 0.0445 |
| CTAACCGC | 0.0621 |
| CCGGAGAG | -0.151 |
| ATGCTTTC | -0.0854 |
| GGTATTTA | -0.0648 |
| AAAAGAAG | -0.0315 |

| Sequence | PBM E-score |
| --- | --- |
| ACGGACCG | 0.177 |
| GAACTTGA | 0.0615 |
| TAGTCGGA | -0.0269 |
| CTAACTCC | -0.182 |
| TTATCGAA | 0.0432 |
| ATCGTAGA | 0.337 |
| AACGAAAA | 0.368 |
| AACGAGAA | 0.422 |
| CTTACGTA | 0.235 |
| AACTTTCC | -0.281 |
| TACCTACA | -0.0678 |
| ATAAGAAA | 0.17 |
| ACTAACCG | 0.219 |
| ACCCGAGT | 0.199 |
| ACAAAGCG | 0.0821 |
| GATTAACA | -0.00617 |
| ACGGAGAC | 0.0586 |
| GCTAGCGA | -0.0392 |
| AAGTTATA | 0.0992 |
| ACCGAACC | 0.0637 |
| ATGCTAGA | -0.0503 |
| GGCGTATA | 0.434 |
| ATTAGCAG | -0.108 |
| AGTTTCGA | -0.0693 |
| CCATTGGC | -0.329 |

| Sequence | PBM E-score |
| --- | --- |
| AGACCTGG | -0.256 |
| TCATTAGA | 0.0189 |
| TCGCGCCA | -0.249 |
| ATTACTAC | 0.12 |
| ACAGCCGT | 0.109 |
| CGTAGGAA | 0.144 |
| ATTACCGG | -0.197 |
| TCTAGTAA | -0.148 |
| CATCCTGG | -0.153 |
| ATGGATGG | -0.102 |
| CGGCTCGA | 0.0304 |
| AACCCCAG | -0.275 |
| AACTGCGA | -0.0449 |
| ATTTTTCC | 0.17 |
| CTGGAAGA | -0.149 |
| AACCCCCG | -0.138 |
| GCTGCTGA | -0.0134 |
| AGGTGCGA | 0.0768 |
| AGAAAGAA | 0.0569 |
| CAAGCTGG | -0.157 |
| TAGATAGA | -0.103 |
| TCATTCGA | -0.0636 |
| CCAACGCC | -0.159 |
| ATTGCAAC | -0.00203 |
| AAACCGGG | -0.0509 |

| Sequence | PBM E-score |
| --- | --- |
| TACTGATA | 0.144 |
| AGTCACAC | -0.309 |
| CTTTTTGC | -0.065 |
| AGATGTAG | -0.265 |
| ATTTAGAC | 0.00862 |
| GCGCGTAA | 0.272 |
| CTAGTTCA | -0.048 |
| AGGGATAG | -0.143 |
| AGATCGGC | -0.205 |
| AACTTTCA | 0.0447 |
| CTGACCGA | 0.16 |
| GCTCTCCA | -0.312 |
| AAAGAACC | -0.0458 |
| GCAGCGTA | 0.182 |
| AAAGGCCT | -0.15 |
| AGGACACG | -0.0442 |
| AATTATCA | 0.0257 |
| AACTGGAC | -0.116 |
| ATACGCAA | 0.37 |
| ACTGGGGA | -0.196 |
| AGTCTTGA | -0.304 |
| AAGAAGCG | -0.0452 |
| CGATTCAC | 0.0105 |
| GAACGAGC | 0.465 |
| AGGGTCGC | -0.0118 |

| Sequence | PBM E-score |
| --- | --- |
| AATAAGCA | -0.0284 |
| CCGGGCTC | -0.104 |
| ACGCCAAG | 0.0663 |
| GATGGTGA | -0.143 |
| CCCACCAC | -0.0738 |
| AACCTCCA | -0.169 |
| GACTGCGA | -0.259 |
| GCGGGAAC | 0.0362 |
| ATGCCTAA | -0.192 |
| CTAACGTC | -0.127 |
| CGCTGGAG | -0.0143 |
| CACGAACG | 0.343 |
| ACCGCCTG | -0.234 |
| ATCTACCA | -0.0611 |
| GAGTGACA | -0.0634 |
| GAGGACTA | -0.136 |
| CTGCGTCC | -0.13 |
| CAATCGGG | -0.114 |
| GGCTTTAA | -0.0321 |
| ATCGTGAG | -0.165 |
| CGCGTCAA | 0.0382 |
| ATACTAAA | 0.216 |
| AGCCAAAC | 0.141 |
| CGAATCTC | 0.195 |
| ATCCTGTA | 0.146 |

| Sequence | PBM E-score |
| --- | --- |
| AGCAAATG | -0.15 |
| GGCATTAC | -0.107 |
| TAGAGACA | -0.0532 |
| GAGATCTC | 0.31 |
| CACGAGGA | 0.0675 |
| CCGAGCTA | 0.0202 |
| CATGCAAG | -0.253 |
| AGATGAGC | -0.0614 |
| TATGTAGA | -0.216 |
| GCACGCAA | 0.0246 |
| CGCCTAGC | -0.225 |
| CGCCTACA | -0.122 |
| AGTAACAA | -0.0794 |
| CTACAGAG | -0.0762 |
| GGAATATA | 0.0466 |
| ATGGTGGC | -0.417 |
| GGAACGGA | 0.312 |
| AAAAGTGA | -0.0937 |
| GAGTCATA | -0.0122 |
| ATATTTAC | 0.216 |
| GTGATTCA | -0.264 |
| CGGCGGGC | -0.0751 |
| GGTAGTTA | -0.14 |
| ACGCTGGG | -0.275 |
| AGGCAAGG | -0.212 |

| Sequence | PBM E-score |
| --- | --- |
| CGGCAGGC | 0.0144 |
| ACATATAC | 0.227 |
| ACTGGGAT | -0.0814 |
| ATGGACGG | -0.0867 |
| CGTACGAC | 0.449 |
| CAGATCAC | -0.266 |
| GGAGTCGA | -0.151 |
| CGTAATTA | 0.205 |
| CGATGGAG | 0.0869 |
| CATCAAAG | -0.286 |
| AAACCTTA | 0.144 |
| AAACTATA | 0.093 |
| ACTACGTG | -0.11 |
| CAGTCCGC | -0.225 |
| CACCGTGG | -0.191 |
| AGCTAAAG | -0.0646 |
| GGCTGCGA | -0.00438 |
| CCGCTGCC | -0.111 |
| CAAATACC | -0.0941 |
| ATGCGAGA | 0.246 |
| ACGACGCC | 0.306 |
| ATTTTACA | 0.0754 |
| CTCCCCTA | -0.122 |
| CGCTTGCA | 0.0574 |
| CGCCGCAG | -0.242 |

| Sequence | PBM E-score |
| --- | --- |
| TAGCCTCA | -0.164 |
| CTCAATCC | -0.0558 |
| GGCGACTA | -0.142 |
| ACGCCAGC | -0.0365 |
| TCCCGACA | -0.0207 |
| AGACTTCA | -0.0888 |
| AATAAGAA | 0.0214 |
| AAAGAATA | 0.091 |
| GTCCTCTA | -0.184 |
| ATGGGCCC | -0.0858 |
| CAACGGAC | -0.127 |
| CTTCGTGC | -0.0549 |
| AGGGCGTC | -0.0669 |
| CAAGGTCG | -0.186 |
| AAGAGTCT | -0.0506 |
| CGAGTTAA | 0.171 |
| CACTGAAG | -0.209 |
| CGGGCCTC | -0.0711 |
| AATTGGTA | 0.0555 |
| CCATTAGC | 0.00735 |
| CGATTCAG | 0.0397 |
| GCTGTCTA | -0.0899 |
| TACCACAA | 0.0329 |
| AGCAGGCA | -0.246 |
| AGTCGATC | -0.0192 |

| Sequence | PBM E-score |
| --- | --- |
| TCCTAACA | 0.02 |
| AAAACACC | -0.187 |
| ACGACAAA | 0.367 |
| CTTCAGCC | -0.234 |
| ACGTAGCG | 0.224 |
| ATGGAGTG | -0.272 |
| ACTATCAT | 0.0324 |
| AAGTGAAG | -0.122 |
| AAACGGCT | 0.296 |
| CGTGCCTA | -0.229 |
| CTCAGGCC | -0.202 |
| ATCCCCCC | -0.331 |
| ACCGCAAC | 0.086 |
| CGTATATC | 0.454 |
| CGCCAGGC | -0.0622 |
| CTTTTCCA | -0.318 |
| AGTACTCG | 0.242 |
| ACTCCGCT | -0.102 |
| AGGTTAGA | -0.168 |
